Reference: PubChem BioAssay AID1347073 (National Center for Advancing Translational Sciences (NCATS), 2019)
Out of some 45,000 compounds screened, about 200 (0.44%) were called active. About 7% were inconclusive and are not listed. Calls follow the shape of the dose curve; as a rule, active = well fitted activation curve with a large enough effect; inconclusive = small, poorly fitted or top-dose-only effect; inactive = no such curve, though single readings can be large or run the other way. The list shows a part of the results.

Assay: qHTS of TDP-43 Inhibitors: NCGC Sytravon Library Screen; also: 0% is about no effect; nearly all actives have a fitted effect of over 55% in size
Conditions: yeast TDP-43 toxicity rescue, BacTiter-Glo growth, 24 h; series mostly up to 46.1 µM; growth rescue (activation): at the top concentration
How it was run: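 TDP-43-expressing yeast, pregrown in raffinose, seeded at OD600 0.02 in galactose medium with compound for 24 hr at 30 deg C. Growth read by BacTiter-Glo luminescence, so rescue of toxicity appears as activation.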
With `Cc1coc2cc3oc(=O)c(CC(=O)N[C@@H](CC(C)C)C(=O)O)c(C)c3cc12` the “growth rescue (activation)” value was inactive: 3.09%.
In the case of `Nc1nnc(-c2cccc([N+](=O)[O-])c2)o1`, the “growth rescue (activation)” value is reported as inactive: 0.855%.
For `CC(=O)C1=C(C)NC(SCC(=O)c2ccccc2)=C(C#N)C1CC(C)C` (configuration not stated), the “growth rescue (activation)” value was inactive: 15.6%.
For `COc1ccc(Nc2ccc(N3C(=O)CCCC3=O)cc2[N+](=O)[O-])cc1OC`, the “growth rescue (activation)” value was inactive: 1.99%.
In the case of `c1ccc2[nH]c(C3CC3)nc2c1`, the “growth rescue (activation)” value is reported as inactive: 8.99%.
For `O=C(COC(=O)CNS(=O)(=O)c1c(Cl)cccc1Cl)Nc1cccnc1Cl`, the “growth rescue (activation)” value was inactive: 11.1%.
For `CCNC(=O)C1(C)CCN(C(=O)c2cc(C)oc2C)C1` (configuration not stated), the “growth rescue (activation)” value was inactive: -2.71%.
For `Cc1cc(Cl)nc(NC(=O)Nc2cccc(Cl)c2)n1`, the “growth rescue (activation)” value was inactive: -0.224%.
With `COc1ccc(CN(C)CC(=O)Nc2ccccc2C(=O)NC2CC2)cc1F` the “growth rescue (activation)” value was inactive: 18.3%.
In the case of `N#C/C(=C(/O)c1ccccc1F)c1nc2cc(C(F)(F)F)ccc2s1`, the “growth rescue (activation)” value is reported as inactive: -10.3%.
With `O=C1Cc2ccccc2C(=O)N1c1cccc(Cl)c1` the “growth rescue (activation)” value was inactive: 2.79%.
For `COc1ccc(C2C(O)C(c3c[nH]c4ccccc34)=NN2C(=O)CCl)cc1` (configuration not stated), the “growth rescue (activation)” value was inactive: 11.7%.
In the case of `C/C(=N/NC(=O)CC(=O)N/N=C(\C)c1ccc([N+](=O)[O-])cc1)c1ccc([N+](=O)[O-])cc1`, the “growth rescue (activation)” value is reported as inactive: -17.8%.
For `COc1ccc(NC(=O)c2ccc(C#N)cc2)cc1NS(=O)(=O)c1ccc(F)cc1`, the “growth rescue (activation)” value was inactive: -7.84%.
For `COc1cc(/C=C/C(=O)OCC(=O)Nc2cccc(F)c2)ccc1O`, the “growth rescue (activation)” value was inactive: 18.2%.
For `Nc1cc(=O)[nH]c(SCC(=O)Nc2cccc(S(=O)(=O)N3CCCCCC3)c2)n1`, the “growth rescue (activation)” value was inactive: 0.949%.
In the case of `CC(=O)Nc1cccc(Oc2ccc3c(c2)C(=O)N(CCC(=O)O)C3=O)c1`, the “growth rescue (activation)” value is reported as inactive: 9.56%.
With `COc1cccc2cc(C(C)N(CCCN3CCOCC3)C(=S)Nc3cc(C)ccc3C)oc12` (configuration not stated) the “growth rescue (activation)” value was inactive: -14.1%.
For `COc1ccccc1NC(=O)CCCN1C(=O)C2CC=CCC2C1=O` (configuration not stated), the “growth rescue (activation)” value was inactive: 12.7%.
With `Cc1cc(=O)n2c(n1)NC(Nc1cccc(C)c1C)=NC2c1ccc(F)cc1` (configuration not stated) the “growth rescue (activation)” value was inactive: 0.554%.
With `CC(=O)N1CCN(C(=O)c2cc(=O)c3ccccc3o2)CC1` the “growth rescue (activation)” value was inactive: -7.12%.
With `CCOC(=O)C1=C(C)N=c2s/c(=C\c3cccn3C)c(=O)n2C1c1cccc(OC)c1OC` (configuration not stated) the “growth rescue (activation)” value was inactive: -14.6%.
For `O=C(COC(=O)c1cc(=O)[nH]c2ccccc12)NCc1cccs1`, the “growth rescue (activation)” value was inactive: 9.08%.
With `COc1cc(/C=C/C(=O)N2CCOCC2)ccc1OCc1ccccc1` the “growth rescue (activation)” value was inactive: 38.1%.
In the case of `Cc1cccc(NC(=O)CN(C)C(=O)c2ccc3ccccc3n2)c1C`, the “growth rescue (activation)” value is reported as inactive: 38.1%.
In the case of `O=C(Nc1ccccc1O)c1c(O)c2c([nH]c1=O)CCCC2`, the “growth rescue (activation)” value is reported as inactive: -4.35%.
For `CCC1(c2ccccc2)NC(=O)N(CC(=O)Nc2cccc(S(=O)(=O)N3CCCCC3)c2)C1=O` (configuration not stated), the “growth rescue (activation)” value was inactive: 25.6%.
With `Clc1ccc(-c2cc(C3CCNCC3)[nH]n2)c(Cl)c1` the “growth rescue (activation)” value was inactive: 9.06%.
For `NS(=O)(=O)c1ccc(NC(=O)c2cccc(Cl)c2)cc1`, the “growth rescue (activation)” value was inactive: -1.4%.
With `Cc1cc(OCC(=O)OCC(=O)Nc2cc(S(=O)(=O)N3CCOCC3)ccc2Cl)ccc1Cl` the “growth rescue (activation)” value was inactive: -3.45%.
With `Cc1cc(C)nc(-n2nc(C)cc2NC(=O)C(C)C)n1` the “growth rescue (activation)” value was inactive: -1.22%.
With `O=C(CSc1n[nH]c(=O)[nH]c1=O)N/N=C/c1ccccc1` the “growth rescue (activation)” value was inactive: 10.7%.
For `CCOc1cccc2cc(-c3nc4ccc(C(=O)O)cc4[nH]3)c(=O)oc12`, the “growth rescue (activation)” value was inactive: 14.9%.
With `CC(C)CN(CC(C)C)C(=O)CN1C(=O)NC2(CCCc3ccccc32)C1=O` (configuration not stated) the “growth rescue (activation)” value was inactive: 6.19%.
With `C/C(CC(=O)Nc1ccc2c(c1)OCCO2)=N\NC(=O)c1ccccc1Cl` the “growth rescue (activation)” value was inactive: -13.7%.
With `CCc1nc2c(OCc3ccc(OC(F)F)cc3)cccn2c1N(C)C(=O)c1cccs1` the “growth rescue (activation)” value was inactive: -2.47%.
For `CC(=O)c1ccc(-c2ccc(C(=O)NCC(c3ccco3)N(C)C)o2)cc1` (configuration not stated), the “growth rescue (activation)” value was inactive: 14.5%.
With `Oc1cccnc1CCc1ccccc1` the “growth rescue (activation)” value was inactive: 2.82%.
With `Cc1ccc(C)c(CN2C(=O)c3ccccc3S(=O)(=O)c3ccc(C(=O)N4CCCCCC4)cc32)c1` the “growth rescue (activation)” value was inactive: 15%.
With `COc1ccc(NC(=O)N2CCCC2C(=O)NCC2CCCCC2)cc1` (configuration not stated) the “growth rescue (activation)” value was inactive: 8.86%.
With `O=C(/C=C/c1cccc(F)c1)N1CCc2ccccc21` the “growth rescue (activation)” value was inactive: 24.6%.
With `Cc1cc(C)n(C(C)CNS(=O)(=O)c2ccc(Cl)cc2)n1` (configuration not stated) the “growth rescue (activation)” value was inactive: -9.14%.
In the case of `O=C(NCc1cccnc1)c1cccc(-c2cc3ccccc3oc2=O)c1`, the “growth rescue (activation)” value is reported as inactive: 3.43%.
With `O=C(NCC1CCCO1)C1CC(=O)N(c2ccc(Cl)cc2)C1` (configuration not stated) the “growth rescue (activation)” value was inactive: -16.6%.
With `C/C(=N\NC(=O)c1ccc(CN2CCOCC2)cc1)c1ccc(NC(=O)c2ccccc2)cc1` the “growth rescue (activation)” value was inactive: 12%.
With `O=C(Nc1cccc(C(=O)O)c1)/C(=C\c1ccco1)NC(=O)c1ccccc1` the “growth rescue (activation)” value was inactive: -7.03%.
For `Cc1onc(-c2ccccc2)c1C(=O)N1CCN(c2ncccn2)CC1`, the “growth rescue (activation)” value was inactive: 7.63%.
In the case of `CC(C)(C)c1nnc(NC(=S)Nc2ccccc2)s1`, the “growth rescue (activation)” value is reported as inactive: 18%.
With `CCOC(=O)c1cnc2ccc(C)cc2c1N(C)Cc1ccccc1` the “growth rescue (activation)” value was inactive: -15.6%.
In the case of `COC(=O)CNC(c1ccccc1)c1cc(Br)ccc1NC(=O)CNC(=O)OCc1ccccc1` (configuration not stated), the “growth rescue (activation)” value is reported as inactive: 14.9%.
In the case of `O=C1N(c2ccccc2)C2CS(=O)(=O)CC2N1c1ccc(Br)cc1` (configuration not stated), the “growth rescue (activation)” value is reported as inactive: -10.3%.
With `COc1ccc(CN2CCN(C(=O)C3CCC(CNS(=O)(=O)c4ccccc4)CC3)CC2)c(OC)c1OC` (configuration not stated) the “growth rescue (activation)” value was inactive: 15.2%.
For `Cc1ccc(N(CC(=O)NC(C)(C)C)C(=O)CNC(=O)c2cccs2)cc1`, the “growth rescue (activation)” value was inactive: -7.94%.
With `CC(=O)c1ccc(C(=O)NC2CCCN(Cc3ccc(Cl)cc3)C2)s1` (configuration not stated) the “growth rescue (activation)” value was inactive: 9.64%.
With `O=C(/C=C/Nc1ccc(Nc2ccccc2)cc1)c1cccs1` the “growth rescue (activation)” value was inactive: -6.74%.
For `Cc1cc(Oc2ccc(Br)cc2)nc(SCC(=O)c2ccccc2)n1`, the “growth rescue (activation)” value was inactive: -5.62%.
In the case of `CCCCc1ccc(S(=O)(=O)NC(=O)C2(C)CCN2C(=O)CCc2cccs2)cc1` (configuration not stated), the “growth rescue (activation)” value is reported as inactive: 21.4%.
In the case of `O=C(OCC(=O)N1CCCC1)c1cccs1`, the “growth rescue (activation)” value is reported as inactive: 0.0991%.
For `O=C(NC1CCCCC1)N1CCN(Cc2nc3ccccc3c(=O)[nH]2)CC1`, the “growth rescue (activation)” value was inactive: 14.1%.
With `COc1ccc(C(=O)NNC(=O)c2ccc(C(C)(C)C)cc2)cc1` the “growth rescue (activation)” value was inactive: 14.7%.
For `CC(=O)c1cc(-c2ccc(F)cc2)n(CCC(=O)Nc2cccnc2)c1C`, the “growth rescue (activation)” value was inactive: -9.08%.
With `CCOC(=O)C1(C)CCN1C(=O)c1ccc(C(F)(F)F)cc1` (configuration not stated) the “growth rescue (activation)” value was inactive: 6.43%.
For `Cc1ccc(-c2nnc(SCC(=O)N/N=C/c3ccc(C)s3)n2-c2ccc(C)cc2)cc1`, the “growth rescue (activation)” value was inactive: -5.7%.
In the case of `O=C(c1cccnc1)N(Cc1ccccc1)C1(C(=O)Nc2ccccc2)CCCCC1`, the “growth rescue (activation)” value is reported as inactive: 17.1%.
With `CCn1c(C)nc2cc(C(=O)N/N=C/c3ccc(OC)c(O)c3)ccc21` the “growth rescue (activation)” value was inactive: 11.4%.
In the case of `O=C(CCCCCCCCCCC(=O)NCc1cccnc1)NCc1cccnc1`, the “growth rescue (activation)” value is reported as inactive: -6.31%.
In the case of `Cn1cc(-c2csc(C(O)c3ccc(F)cc3)n2)cn1` (configuration not stated), the “growth rescue (activation)” value is reported as inactive: 38.8%.
